Data on 31 compounds can be found in PubChem BioAssay AID1745853 (National Center for Advancing Translational Sciences (NCATS), 2022).

The list shows a part of the results. These are further read-outs of the screen, such as a control signal, another cell line or another target. No call is given for them.

Common to all, as to assay: Primary Screen for Target Class Profiling of Small Molecule Inhibitors of Methyltransferases
Assay [1] has as its target Glycine N-methyltransferase (Homo sapiens) (UniProt Q14749). As to conditions: purified enzyme, MTase-Glo SAH luminescence; measured here: GNMT inhibition; at 40 µM; stronger effect = lower value. The method, boiled down: (§1)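 Each enzyme was assayed with SAM and its substrate. SAH formation detected by MTase-Glo luminescence; single-point 40 uM screen[…].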
Assay [2] addresses Guanidinoacetate N-methyltransferase (Homo sapiens) (UniProt Q14353). The conditions noted are these: purified enzyme, MTase-Glo SAH luminescence; measured here: GAMT inhibition; at 40 µM; stronger effect = lower value. The method, boiled down: as §1
Assay [3] has as its target Histamine N-methyltransferase (Homo sapiens) (UniProt P50135). The conditions noted are these: purified enzyme, MTase-Glo SAH luminescence; measured here: HNMT inhibition; at 40 µM; stronger effect = lower value. The method, boiled down:
as §1

Assay [4] concerns the target Nicotinamide N-methyltransferase (Homo sapiens) (UniProt P40261). The conditions noted are these: purified enzyme, MTase-Glo SAH luminescence; measured here: NNMT inhibition; at 40 µM; stronger effect = lower value. The method, boiled down: as §1
For assay [5], the target named is Phenylethanolamine N-methyltransferase (Homo sapiens) (UniProt P11086). As to conditions: purified enzyme, MTase-Glo SAH luminescence; measured here: PNMT inhibition; at 40 µM; stronger effect = lower value. The gist of the method:
as §1
% is set by controls: 0 for no effect and ±100 for the full control effect.

In the case of `CCOC(=O)c1cccc(NC(=O)c2cc3n(n2)CC(C)(C(=O)NC2CCCCC2)N(C)C3=O)c1` (stereo not given), the activity change, negative = inhibition stood at 6.36% in assay [1]; 4.38% in assay [2]; 8.15% in assay [3]; 5.55% in assay [4]; 2.33% in assay [5].

Take `CC(C)(C)C(=O)N1CCC2(CC1)C(=O)N(CC(=O)Nc1cccc(Cl)c1)CN2c1ccccc1`: the activity change, negative = inhibition in assay [1] was -3.61%; in assay [2] it was 3.48%; in assay [3], -1.2%; in assay [4], -7.23%; in assay [5], 4.72%.

Turning to `COc1ccc(N2C(=O)c3cc(-c4cccs4)nn3CC2(C)C(=O)NC2CCCCC2)cc1Cl` (stereo not given), the activity change, negative = inhibition was found to be 2.5% in assay [1]; 2.69% in assay [2]; 8.4% in assay [3]; 3.8% in assay [4]; 4.48% in assay [5].

Regarding `CN(C)CC[C@@H](c1ccc(Cl)cc1)c1ccccn1`, the activity change, negative = inhibition in assay [1] is 7.05%; in assay [2], 10.5%; in assay [3], -19.1%; in assay [4], -4.43%; in assay [5], 5.62%.

For the compound `CN1C(=O)CC(C(=O)O)C12CCN(Cc1nc3ccsc3c(=O)[nH]1)CC2` (stereo not given), the activity change, negative = inhibition in assay [1] is -5%; in assay [2], -8.08%; in assay [3], -4.56%; in assay [4], -15.1%; in assay [5], -7.92%.

For the compound `CC(C)CNC(=O)c1ccc2c(=O)n(CC(C)C)c3nn(Cc4cccc(F)c4)c(=O)n3c2c1`, the activity change, negative = inhibition in assay [1] was 4.42%; in assay [2] it was 2.85%; in assay [3], 3.81%; in assay [4], 1.85%; in assay [5] it was -2%.

For the compound `CC1=C(COC2OC(CO)C(O)C(O)C2O)C(C(CO)C(=O)O)CC1` (stereo not given), the activity change, negative = inhibition is 3.34% in assay [1]; 1.41% in assay [2]; 8.1% in assay [3]; -12.6% in assay [4]; -5.27% in assay [5].

`COc1ccc(-c2cc(-c3cnn(C)c3)cn3cncc23)cn1`: the activity change, negative = inhibition in assay [1] was -22.9%; in assay [2] it was -3.79%; in assay [3], -6.17%; in assay [4], -53.2%; in assay [5] it was -18.5%.

`CC1(C(=O)NC2CCCC2)Cn2cnc(C(=O)NCc3ccccc3F)c2C(=O)N1C1CC1` (stereo not given): the activity change, negative = inhibition was -9.07% in assay [1]; 2.91% in assay [2]; -6.18% in assay [3]; -9.5% in assay [4]; -9.52% in assay [5].

Take `COc1cc(/C=C/C(=O)O[C@@H]2C[C@@](O)(C(=O)O)C[C@@H](O)[C@@H]2O)ccc1O`: the activity change, negative = inhibition in assay [1] was 4.67%; in assay [2] it was 7.49%; in assay [3], 6.56%; in assay [4] it was -4.61%; in assay [5], 7.01%.

With `COc1ccc(-c2cc3n(n2)CC(C)(C(=O)NC2CCCCC2)N(Cc2cccs2)C3=O)cc1` (stereo not given), the activity change, negative = inhibition in assay [1] is -7.44%; in assay [2] it was -1.56%; in assay [3] it was -6.19%; in assay [4], -13.9%; in assay [5] it was -10.1%.

With `O=C(Cn1cccc1-c1nc(-c2ccccc2)no1)N1CCN(c2ccccc2)CC1`, the activity change, negative = inhibition was 0.22% in assay [1]; -3.14% in assay [2]; 0.752% in assay [3]; 1.51% in assay [4]; -2.01% in assay [5].

For the compound `CCOC(=O)c1cc2n(n1)CC(C)(C(=O)NC1CCC(C)CC1)N(c1cc(Cl)ccc1C)C2=O` (stereo not given), the activity change, negative = inhibition was 2.4% in assay [1]; 1.67% in assay [2]; -6.13% in assay [3]; -2.68% in assay [4]; 11.9% in assay [5].

Turning to `CC(C)C(=O)NCC(=O)N1CCC2(CC1)Nc1ccccc1NC2=O`, the activity change, negative = inhibition in assay [1] is -3.83%; in assay [2], -5.73%; in assay [3], -1.52%; in assay [4], -11.6%; in assay [5], -9.22%.

As to `CC(C)O[C@@H]1O[C@H](CO)[C@@H](O)[C@H](O)[C@H]1O`, the activity change, negative = inhibition in assay [1] was -3.08%; in assay [2], -5.39%; in assay [3], 2.61%; in assay [4], -13.5%; in assay [5] it was -12.5%.

As to `Nc1c(Br)cc(Br)cc1CNC1CCC(O)CC1` (stereo not given), the activity change, negative = inhibition is -12.4% in assay [1]; -7.47% in assay [2]; -9.46% in assay [3]; -35.6% in assay [4]; -9.35% in assay [5].

In the case of `CC(C)CCN1C(=O)c2cc3ccccc3n2CC1(C)C(=O)NC1CCCCCC1` (stereo not given), the activity change, negative = inhibition is 6.76% in assay [1]; 1.09% in assay [2]; 6.43% in assay [3]; 6.58% in assay [4]; -3.75% in assay [5].

`Cc1cc(C(=O)N2CCn3nc(C(C)O)cc3C2)c2ccc(F)cc2n1` (stereo not given): the activity change, negative = inhibition is 8.78% in assay [1]; 0.18% in assay [2]; 3.04% in assay [3]; -6.85% in assay [4]; 0.123% in assay [5].

`N#Cc1ccc(Oc2ccc3c(c2)COB3O)cc1`: the activity change, negative = inhibition in assay [1] was -4.64%; in assay [2], -0.385%; in assay [3], 8.68%; in assay [4] it was -13.3%; in assay [5], 2.42%.

Take `COc1ccc2cc3n(c2c1)CC(C)(C(=O)NC1CCCCCC1)N(CCN1CCCC1)C3=O` (stereo not given): the activity change, negative = inhibition is 3.44% in assay [1]; 5.08% in assay [2]; -0.674% in assay [3]; 1.38% in assay [4]; 0.429% in assay [5].

On to `O=C(Cn1nc2n(Cc3ccc(F)cc3)c(=O)c3ccccc3n2c1=O)NCc1ccccc1`, for which the activity change, negative = inhibition in assay [1] is 0.264%; in assay [2], 0%; in assay [3] it was 4.49%; in assay [4] it was -0.332%; in assay [5], -1.95%.

On to `COc1ccc2cc3n(c2c1)CC(C)(C(=O)NCCCN1CC(C)CC(C)C1)N(C1CCCCC1)C3=O` (stereo not given), for which the activity change, negative = inhibition is 3.04% in assay [1]; 1.17% in assay [2]; 2.18% in assay [3]; 6.75% in assay [4]; 2.54% in assay [5].

Take `CC(C)Cn1c(=O)c2ccccc2n2c(CCC(=O)Nc3ccc(F)cc3)nnc12`: the activity change, negative = inhibition in assay [1] was -7.61%; in assay [2] it was 0.61%; in assay [3], -3.31%; in assay [4], -11.9%; in assay [5] it was -8.95%.

As to `CCn1c(=O)c2cc(C(N)=O)c(N)nc2n(C2CC2)c1=O`, the activity change, negative = inhibition in assay [2] was -2.57%; in assay [4], -13.5%; in assay [5] it was 4.8%.

As to `CCCCN1C(=O)c2cc3c(OC)ccc(OC)c3n2CC1(C)C(=O)NC1CCCC1` (stereo not given), the activity change, negative = inhibition in assay [1] is -4.32%; in assay [2] it was 0.618%; in assay [3], 5.16%; in assay [4], 3.55%; in assay [5], 0.221%.

`O=C(Cn1ccc2cc(S(=O)(=O)N3CCCCC3)ccc21)NCc1ccccc1Cl`: the activity change, negative = inhibition is 2.01% in assay [1]; 1.21% in assay [2]; 3.91% in assay [3]; -3.92% in assay [4]; -0.28% in assay [5].

With `CN(C)C1CCN(C(=O)c2ccc(NC(=O)Nc3nc(N4CCOCC4)nc(N4CCOCC4)n3)cc2)CC1`, the activity change, negative = inhibition is -0.106% in assay [1] and 7.82% in assay [3].

With `Cc1ccc(CNC(=O)C2(C)Cc3ccccc3C(=O)N2Cc2cc(F)cc(F)c2)cc1` (stereo not given), the activity change, negative = inhibition in assay [1] turned out to be 13.1%; in assay [2], 1.52%; in assay [3], 12.6%; in assay [4], 4.59%; in assay [5], 10.4%.

As to `C=CC(C)(O)CC/C=C(\C)COC1O[C@H](CO)[C@@H](O)[C@H](O)[C@H]1O` (stereo not given in full), the activity change, negative = inhibition is 0% in assay [1]; -11.2% in assay [2]; 4.92% in assay [3]; -23% in assay [4]; -11.6% in assay [5].

Consider `COc1cccc(CN2C(=O)c3ccc(-c4ccco4)n3CC2(C)C(=O)NCc2ccc(Cl)cc2)c1OC` (stereo not given), for which the activity change, negative = inhibition in assay [1] was -7.08%; in assay [2], -11.3%; in assay [3], -0.368%; in assay [4] it was -13.5%; in assay [5] it was -8.71%.

In the case of `COC(=O)C1=CO[C@@H](O[C@@H]2O[C@H](CO[C@@H]3O[C@H](COC(=O)/C=C/c4ccc(O)cc4)[C@@H](O)[C@H](O)[C@H]3O)[C@@H](O)[C@H](O)[C@H]2O)[C@@H]2C(CO)=CC[C@H]12`, the activity change, negative = inhibition in assay [1] was 4.58%; in assay [2], 8.64%; in assay [3] it was 9.5%; in assay [4], -3.45%; in assay [5], 8.11%.
